# Laboratory results: PubChem BioAssay AID1508642 (National Center for Advancing Translational Sciences (NCATS), 2021)
# The campaign covered roughly 43,000 compounds. About 200 (0.47%) were called active. Not shown: some 12% with an inconclusive outcome. Calls follow the shape of the dose curve; as a rule, active = well fitted cell-killing curve with a large enough effect; inconclusive = small, poorly fitted or top-dose-only effect, or effect the other way; inactive = flat fitted curve, though single readings scatter. The list shows a part of the results.
# Assay: Cell viability qHTS assay in S16 Pmp22-F2sN cells; also: nearly all actives have a fitted effect of over 65% in size
# Conditions: S16 Pmp22-F2sN Schwann cells (luciferase reporters placed in the Pmp22 gene) viability, CellTiter-Glo, 24 h; series mostly up to 57.5 µM; activity change, negative = cytotoxicity: at the top concentration
# In short: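 Seed 500-1,000 S16 Pmp22-F2sN cells per well in phenol-red-free DMEM with 10% heat-inactivated FBS; pin-add 23 nL compound; incubate 24 h at 37C; add CellTiter-Glo, wait 15 min protected from light; read luminescence.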
# % is scaled to controls: 0 for no effect and ±100 for the full control effect; potency is read from the fitted curve at half-maximal effect.
SMILES,"activity change, negative = cytotoxicity",Potency
CCOC(=O)N1CCC(NC(=O)c2ccc3c(c2)N(Cc2ccccc2C)C(=O)c2ccccc2S3=O)CC1 (stereo not given),inactive: 3.28%,–
O=C(NCc1cccs1)c1ccc2c(c1)sc1nc(-c3ccc(F)cc3)cn12,inactive: 11.9%,–
O=C(Nc1cc(Cl)ccc1Cl)c1ccc2c(c1)N(Cc1cccc(Cl)c1)C(=O)c1ccccc1S2=O (stereo not given),inactive: 8.26%,–
COc1ccc(N2CCN(C(=O)Nc3cn(CC(C)C)c(=O)c4ccccc34)CC2)cc1,inactive: -3.69%,–
Cc1ccc2oc(C(=O)Nc3c(C(=O)Nc4cccc(Cl)c4)oc4ccccc34)cc(=O)c2c1,inactive: 0.817%,–
Cc1nn(-c2ccccc2)c(OC(=O)c2ccccc2)c1S(=O)(=O)c1ccccc1,inactive: 8.2%,–
COc1c(Cl)cc(C(=O)Nc2cc(-c3nc4ccccc4[nH]3)ccc2C)cc1Cl,inactive: -3.23%,–
CCCCNc1nc2c(S(=O)(=O)c3ccc(Br)cc3)nnn2c2ccsc12,inactive: -18.7%,–
Cc1ccc(NC(=O)Cn2c(=O)n(Cc3nc(-c4ccccc4)no3)c(=O)c3ccccc32)c(C)c1,inactive: 0.967%,–
CCN(C(=O)CN1C(=O)c2ccccc2Sc2ccc(C(=O)OC)cc21)c1cccc(C)c1,inactive: -0.161%,–
CCC(=O)N1CCc2cc(S(=O)(=O)NC(Cc3ccccc3)C(=O)NCc3ccccc3)ccc21 (stereo not given),inactive: -5.75%,–
Cc1ccc(OCC(=O)Nc2ccc(OCc3cc(=O)n4ccsc4n3)cc2)cc1C,inactive: -1.44%,–
Cc1ccc(C(=O)N(Cc2ccc(N(C)C)cc2)CC2CCCO2)cc1 (stereo not given),inactive: 11.9%,–
Cc1nn(C(C)C(=O)NCc2ccc(OC(C)C)cc2)c(=O)c2c1sc1ccccc12 (stereo not given),inactive: 4.37%,–
Cc1ccc2ccc3cc(C(=O)N4CCN(c5ccccc5F)CC4)nc3c2[nH]1,inactive: 4.13%,–
CCCCNC(=O)CCC(=O)NNc1nc2ccccc2c2nc(C)nn12,inactive: 5.13%,–
CC(CCc1ccccc1)NC(=O)CSc1n[nH]c(-c2ccccc2)n1 (stereo not given),inactive: -9.51%,–
COc1ccccc1NC(=O)c1c(-c2ccc(C)cc2)nnc2ccccc12,inactive: -0.357%,–
Cc1ccc(Nc2c(-c3ccccn3)nc3ccc(Br)cn23)cc1,inactive: 0.927%,–
CCC(=O)N1CCc2cc(Br)cc(S(=O)(=O)N3CCCC(C(=O)Nc4ccc(C)c(F)c4)C3)c21 (stereo not given),inactive: -2.09%,–
COCCN(CCOC)S(=O)(=O)c1ccc(C(=O)Nc2sc3c(c2C(N)=O)CCCC3)cc1,inactive: -1.11%,–
CCCn1c(=N)c(C(=O)NCC2CCCO2)cc2c(=O)n3cc(C)ccc3nc21 (stereo not given),inactive: 8.34%,–
Cc1cccc(-c2nc(SCc3cc(=O)c4c(C)cc(C)cc4[nH]3)n[nH]2)c1,inactive: 4.23%,–
CCCNC(=O)c1ccc2c(c1)N=C(CCC)c1ccccc1S2,inactive: 2.96%,–

SMILES,"activity change, negative = cytotoxicity",Potency
COc1cccc(NC(=O)Cn2nc(N3CCN(c4ccccc4)CC3)ccc2=O)c1,inactive: 4.23%,–
Cc1ccc(Cl)cc1-n1ncc2c(NCCc3ccccc3)ncnc21,inactive: -0.288%,–
O=C(Cn1nc2c(cc1=O)CCCC2)NCc1ccc(Cl)cc1,inactive: -14.6%,–
Cc1cccc(CSc2cn(CC(=O)N3CCOCC3)c3ccccc23)c1,inactive: 6.72%,–
O=C(Cn1ncc2c3ccccc3n(Cc3ccccc3)c2c1=O)NCCc1ccc(Cl)cc1,inactive: 16.9%,–
COc1ccc(S(=O)(=O)N2CCC(c3nc4ccccc4s3)CC2)cc1OC,inactive: 3.64%,–
Cc1ccc(CCNC(=O)C2CCN(S(=O)(=O)c3ccc4c(ccn4C)c3)CC2)cc1,inactive: -1.59%,–
Cc1ccc(-c2nc3c4c(-c5ccccc5)c(-c5ccccc5)oc4ncn3n2)cc1,inactive: -4.27%,–
Cc1ccc(CNC(=O)CSc2nc3ccccc3nc2Cc2ccc(C)cc2)cc1,inactive: 8.65%,–
CCOc1ccc(NC(=O)c2c(C)oc3nc(C)nc(N4CCOCC4)c23)cc1,inactive: 11.1%,–
COc1ccc(NC(=O)CSc2nc(C)cc(C)c2C(=O)Nc2ccccc2OC)cc1,inactive: 8.84%,–
COc1ccc(S(=O)(=O)NCC(c2ccco2)S(=O)(=O)c2cccs2)cc1F (stereo not given),–,active: 12.6 µM
COc1ccc(-n2c(SCC(=O)NCc3ccc(F)cc3)nc3c([nH]c4ccccc43)c2=O)cc1,inactive: 2.75%,–
O=C(CCSCc1cccc(Cl)c1)NCCc1ccc(Cl)cc1,inactive: 3.82%,–
O=C(c1ccccc1)N1CCc2cc(CNS(=O)(=O)c3ccc(Cl)s3)ccc21,inactive: -0.591%,–
CC(=O)Nc1cccc(NC(=O)Cn2cnc3c(oc4ccccc43)c2=O)c1,inactive: 2.79%,–
Cn1c(=O)n(C)c2cc(N3CCOCC3)c(NS(=O)(=O)c3cccc(C#N)c3)cc21,inactive: -11.6%,–
Cc1nn2cc(-c3ccc(OC(C)C)cc3)nc2s1,inactive: 9.19%,–
Cc1oc(-c2ccc(Cl)cc2)nc1Cn1c(=O)cc(C)c2c(C)nn(-c3ccccc3)c21,inactive: 4.78%,–
CCC(=O)Nc1nnc(S(=O)(=O)N2c3ccccc3CC2C)s1 (stereo not given),inactive: 3.43%,–
Cc1ccc(CNc2nc3ccccc3n3cnnc23)cc1,inactive: -4.28%,–
Cc1csc2nc(COC(=O)c3ccc(NC(=O)C(C)Oc4ccccc4)cc3)cc(=O)n12 (stereo not given),inactive: 4.54%,–
CCC(=O)N1c2ccccc2CC1C(=O)NCc1cc(Br)ccc1OC (stereo not given),inactive: 20.5%,–
Cc1ccc2oc3c(c(=O)c2c1)C(c1ccc(O)cc1)N(c1nc(C)c(C)s1)C3=O (stereo not given),inactive: -12.8%,–

SMILES,"activity change, negative = cytotoxicity",Potency
Cc1cccc(NC(=O)C2CCCN2S(=O)(=O)c2ccc3c(c2)n(C)c(=O)c(=O)n3C)c1 (stereo not given),inactive: -0.978%,–
Cc1cc(C)c2oc(-c3cccc(NC(=O)c4ccc(-c5cccc([N+](=O)[O-])c5)o4)c3)nc2c1,inactive: 14.6%,–
O=C(NCc1cccc(F)c1)c1ccccc1NC(=O)c1nsc2ccccc12,inactive: -1.27%,–
COc1ccc(NC(=O)c2cnc(N3CCCC3)nc2)cc1OC,inactive: 2.56%,–
CCCC1=Nc2cc(C(=O)N3CCC(C(=O)OCC)CC3)ccc2Sc2ccccc21,inactive: 25.5%,–
Cc1ccc2nc(-c3ccccn3)c(Nc3ccccc3C)n2c1,inactive: -20.5%,–
CCCN1CCc2nc(N3CCN(C)CC3)ncc2C1,inactive: -1.88%,–
CCN(CC)c1nn2c(=O)c(C(=O)NCCc3cccc(C)c3)cnc2s1,inactive: 2.17%,–
Fc1cccc(CSc2ccc(-c3cccs3)nn2)c1,inactive: 4.2%,–
COc1ccc(S(=O)(=O)NCCc2csc3nc(-c4ccccc4)nn23)cc1OC,inactive: 16.5%,–
Cc1cccc(Cn2c(=O)n(-c3ccccc3C)c(=O)c3c2c2cc(C)ccc2n3C)c1,inactive: 6.03%,–
CCc1cccc(C)c1NS(=O)(=O)c1ccc2c(c1)CC(C)N2C(=O)C1CC1 (stereo not given),inactive: -0.519%,–
COc1ccc(-c2noc(CSc3nc4ccccc4[nH]3)n2)cc1OC,inactive: -14.5%,–
COc1ccc(OC(=O)c2nc(SCc3ccccc3C)ncc2Cl)cc1,inactive: -12.2%,–
Cc1ccccc1OCC(=O)Nc1ccccc1OCc1cc(=O)n2ccccc2n1,inactive: 2.29%,–
Cc1ccc(S(=O)(=O)NCCc2nnc3ccc(SCC(=O)Nc4ccc(F)cc4F)nn23)cc1,inactive: 5.31%,–
COc1ccc(CCNC(=O)CCc2c(C)nc3cc(-c4cccc(F)c4)nn3c2C)cc1OC,inactive: -0.695%,–
CCOC(=O)Cn1c(=O)n(CC2CCCO2)c2nc(-c3cc(OC)ccc3OC)nc(C(N)=O)c21 (stereo not given),inactive: 6.56%,–
CC(C)c1nn2c(=O)cc(COC(=O)c3ccc(NC(=O)c4cccs4)cc3)nc2s1,inactive: -1.8%,–
CCCOc1ccc(C(=O)N(Cc2ccco2)Cc2ccco2)cc1,inactive: -9.19%,–
O=C(NCC(c1cccs1)S(=O)(=O)c1cccs1)c1c(F)cccc1F (stereo not given),inactive: -0.902%,–
COc1ccccc1-n1c(=O)n(C)c2c(C(N)=O)nc(-c3cccc(OC)c3OC)nc21,inactive: 15.3%,–
COc1cccc(CSc2nc3n(n2)C(CC(C)C)C(C(=O)Nc2ccccc2C)=C(C)N3)c1 (stereo not given),inactive: 4.67%,–
COc1ccc(C(=O)Nc2cccc(C(=O)OCc3cc(=O)n4c5c(sc4n3)CCCC5)c2)cc1,inactive: 5.16%,–

SMILES,"activity change, negative = cytotoxicity",Potency
Cc1ccc(CCNC(=O)CCCc2nnc3n(C)c(=O)c4sccc4n23)cc1,inactive: -1.31%,–
Cc1cc(C)c2c(CC(=O)Nc3cc(C(F)(F)F)ccc3Cl)coc2c1,inactive: -7.41%,–
CC(NC(=O)c1ccc2c(c1)sc1nc(-c3ccc(F)cc3)cn12)C12CC3CC(CC(C3)C1)C2 (stereo not given),inactive: 4.11%,–
COc1cc(OC)c(NC(=O)CCc2c(C)nc3c4c(C)cc(C)nc4nn3c2C)cc1Cl,inactive: 1.56%,–
COc1cc(NC(=O)C2CCN(S(=O)(=O)c3c(C)noc3/C=C/c3ccccc3F)CC2)cc(OC)c1OC,inactive: -21.9%,–
COc1cccc(/C=C/c2nc(C#N)c(N3CCN(C)CC3)o2)c1,inactive: 0.993%,–
CC1Cn2c(C(=O)NCc3ccccc3Cl)cc3cccc(c32)S1 (stereo not given),inactive: -3.88%,–
CCN(CCCNC(=O)Cn1ncc2c([nH]c3ccc(C)cc32)c1=O)c1ccccc1,inactive: 6.8%,–
N#Cc1cc2c(=O)n3ccccc3nc2n(-c2nnc(SCc3ccccc3Cl)s2)c1=O,inactive: 9.4%,–
CCC(Sc1nc2n[nH]c(C)c2c(=N)n1-c1ccccc1Cl)C(=O)N(CC)CC (stereo not given),inactive: -12.7%,–
Cc1cccc(NC(=O)c2cc3c(=O)n(Cc4cccnc4)ccc3nc2C)c1,inactive: -2.53%,–
COc1ccc(-c2noc(CNC(=O)COc3cccc(C)c3C)n2)cc1,inactive: 0.743%,–
O=C(COCc1cc(-c2ccc3c(c2)OCO3)on1)Nc1cc(Cl)ccc1O,inactive: 4.33%,–
O=C(NCCc1ccc(Cl)cc1)C1CCN(S(=O)(=O)c2ccc3[nH]ccc3c2)CC1,inactive: -2.25%,–
COc1ccc(CCNC(=O)C(=O)NCC(c2cccs2)S(=O)(=O)c2ccc(F)cc2)cc1 (stereo not given),inactive: -7.07%,–
COc1ccc(-c2nc(CSCC(=O)NCc3ccccc3Cl)c(C)o2)cc1OC,inactive: -12.5%,–
CCOC(=O)c1c(C)oc2nc(C)nc(NCCCN3CCN(c4cc(C)ccc4C)CC3)c12,inactive: 17.2%,–
Cc1ccc2nc(Cl)c3cc(C(=O)N4CCCCC4)sc3c2c1,inactive: -15.2%,–
COC(=O)c1cc(S(=O)(=O)NCC2CCN(Cc3cccc(F)c3)CC2)cn1C,inactive: 1.2%,–
Cc1cc(C)c(Cn2c(=O)n(CCCC(=O)NCc3ccc4c(c3)OCO4)c(=O)c3sccc32)c(C)c1,inactive: 0.787%,–
CNC(=O)C1CCC(Cn2c(=O)c3sccc3n(CC(=O)N3CCC(C)CC3)c2=O)CC1 (stereo not given),inactive: 1.24%,–
Cn1c(=O)c2c(nc(SCC(=O)Nc3ccc(F)c(F)c3)n2Cc2ccccc2F)n(C)c1=O,inactive: -3.96%,–
COc1ccc(N(C(=O)Cn2nnc3ccccc32)C(C(=O)NCc2ccccc2)c2ccc(F)cc2)cc1 (stereo not given),inactive: 2.78%,–
